From publication PMC4336329 (PLoS ONE, 2015)
Screen size: about 310,000 compounds; about 2,200 (0.71%) showed an effect of 50% or more. Effects have a minus sign here. The list shows a part of the results.

These compounds were tested against human ether-à-go-go-related gene (hERG) potassium channel (human, UniProt Q12809) (assay: primary screen, population patch clamp on CHO cells stably expressing hERG).
Chain of human ether-à-go-go-related gene (hERG) potassium channel (Q12809 whole entry, looked up): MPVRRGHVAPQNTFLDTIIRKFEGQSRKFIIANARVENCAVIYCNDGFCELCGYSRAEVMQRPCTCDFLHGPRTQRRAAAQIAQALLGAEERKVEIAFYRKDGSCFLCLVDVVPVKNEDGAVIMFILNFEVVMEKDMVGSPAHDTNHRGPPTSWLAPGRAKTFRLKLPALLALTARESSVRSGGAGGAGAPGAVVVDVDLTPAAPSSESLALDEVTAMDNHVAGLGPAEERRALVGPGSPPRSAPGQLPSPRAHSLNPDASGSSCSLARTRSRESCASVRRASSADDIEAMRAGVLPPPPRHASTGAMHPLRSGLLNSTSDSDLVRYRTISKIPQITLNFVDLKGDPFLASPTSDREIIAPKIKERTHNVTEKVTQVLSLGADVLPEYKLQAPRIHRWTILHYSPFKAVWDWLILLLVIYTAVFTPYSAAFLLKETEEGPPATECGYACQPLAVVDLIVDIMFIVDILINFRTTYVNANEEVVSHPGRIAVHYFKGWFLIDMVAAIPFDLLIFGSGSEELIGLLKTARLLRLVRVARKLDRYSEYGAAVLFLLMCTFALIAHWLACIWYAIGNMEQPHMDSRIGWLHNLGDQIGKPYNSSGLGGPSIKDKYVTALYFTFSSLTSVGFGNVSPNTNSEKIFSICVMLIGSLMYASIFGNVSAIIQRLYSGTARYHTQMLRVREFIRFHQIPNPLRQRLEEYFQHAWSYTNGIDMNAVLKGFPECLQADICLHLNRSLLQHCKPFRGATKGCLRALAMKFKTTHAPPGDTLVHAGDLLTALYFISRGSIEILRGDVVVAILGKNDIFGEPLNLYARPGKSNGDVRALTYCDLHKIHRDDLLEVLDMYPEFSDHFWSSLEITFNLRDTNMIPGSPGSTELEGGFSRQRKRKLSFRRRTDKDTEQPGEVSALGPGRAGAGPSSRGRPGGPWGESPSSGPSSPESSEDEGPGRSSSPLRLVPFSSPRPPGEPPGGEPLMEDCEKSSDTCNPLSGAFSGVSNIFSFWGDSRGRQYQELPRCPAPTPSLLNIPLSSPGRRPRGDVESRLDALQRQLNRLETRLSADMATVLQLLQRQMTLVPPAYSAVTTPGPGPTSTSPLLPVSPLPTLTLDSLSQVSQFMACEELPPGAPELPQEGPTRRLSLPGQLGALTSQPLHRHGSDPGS

| Structure (SMILES) | hERG current change (%, negative = inhibition) at 1uM [%] |
| --- | --- |
| COc1cc(OC)cc(-n2nnnc2SCC(=O)Nc2ccc(C(C)=O)cc2)c1 | 10.2 |
| COc1ccc(CCN(Cc2ccccn2)C(=S)Nc2cccc(C)c2)cc1OC | 1.45 |
| Cc1cc(CNC(=O)C2CCC(=O)N(CCc3ccc(Cl)cc3)C2)no1 (stereo not shown) | -13.8 |
| O=C(COc1ccc(Br)cc1Cl)c1ccc[nH]1 | 8.4 |
| NP(=O)(Oc1ccc(Cl)cc1)Oc1ccc(Cl)cc1 | 2.75 |
| COC(=O)c1ccccc1NS(=O)(=O)c1ccc2c(c1)oc(=O)n2C | 11.3 |
| CC(C)N(C(=O)CSc1nnc(CNc2ccc(F)cc2)o1)C(C)C | 3.36 |
| O=C(NC1CCCC1)C(c1cccnc1)N(C(=O)c1csnn1)C1CC1 (stereo not shown) | 3.78 |
| Cn1ncc2c1ncn1nc(COc3ccc4ccccc4c3)nc21 | 7.58 |
| Cn1c(C(=O)N[C@@H](C(=O)O)c2ccccc2)cc2cc(Cl)ccc21 | 17.7 |
| COc1ccccc1C(CNC(=O)c1cccc(NS(=O)(=O)c2ccc(C)c(F)c2)c1)N(C)C (stereo not shown) | -13.9 |
| CCOC(=O)Cn1c(=NC(=O)c2nc3ccccc3s2)sc2cc(S(N)(=O)=O)ccc21 | 11.6 |
| COc1ccc(/C=N/N=C2/SCC(=O)N2Cc2ccccc2)cc1 | 7.86 |
| Cc1sc2c(c1C)c(=O)n(-c1ccccc1)c(=O)n2CC(=O)NCC1CCCO1 (stereo not shown) | 10.7 |
| CCN(CC)S(=O)(=O)c1ccc(NC(=O)Cn2cnc3ccccc3c2=O)cc1 | 10.3 |
| Cn1c(N/N=C/c2cccs2)cc(=O)n(C)c1=O | 12.4 |
| COC(=O)c1ccc(NC(=O)C(OC)c2ccccc2)cc1 (stereo not shown) | 13.3 |
| COc1ccc(N(C(=O)Cc2cccs2)C(C(=O)NC2CCCCC2)c2cccn2C)cc1 (stereo not shown) | 9.18 |
| COc1ccc(NC(=O)c2ccccc2N2C(=O)C3C4C=CC(C5CC45)C3C2=O)c(OC)c1 (stereo not shown) | 17.1 |
| O=S(=O)(Nc1cccc(-n2cnnn2)c1)c1ccccc1C(F)(F)F | 19.3 |
| COc1ccc(NC(=O)N2CCCC(C(=O)NCCc3ccccc3)C2)cc1 (stereo not shown) | 14.5 |
| Cc1cccc(NC(=O)CCc2ccc(C)o2)c1 | 7.2 |

| Structure (SMILES) | hERG current change (%, negative = inhibition) at 1uM [%] |
| --- | --- |
| CC(C)C/C=C1\CCc2c([nH]c3ccccc23)C1=O | 18.6 |
| Cc1ccc(S(=O)(=O)N2CCCCC2CCNC(=O)C(=O)NCc2ccco2)cc1 (stereo not shown) | 1.57 |
| O=C(O)c1cc(N=Cc2c(O)c3ccccc3oc2=O)ccc1O | 0.406 |
| CCCCn1c(NC(=O)c2ccc(Br)o2)c(S(=O)(=O)c2ccccc2)c2nc3ccccc3nc21 | 3.4 |
| C/C(=N\OC(=O)c1ccccc1)c1c(C)nc2cc(C)ccn12 | 4.35 |
| Cc1ccc(SCc2c(C(=O)N/N=C/c3ccc4c(c3)OCO4)nnn2-c2nonc2N)cc1 | 8.33 |
| Cc1nc(SCC(=O)c2ccc(Cl)cc2)c([N+](=O)[O-])[nH]1 | -2.06 |
| Cc1ccnc(NS(=O)(=O)c2ccc(NC(=O)C3C4C=CC(C4)C3C(=O)O)cc2)n1 (stereo not shown) | 21.1 |
| CC(c1ccccc1)N1C(=O)NC(NC(=O)C(C)(C)C)(C(F)(F)F)C1=O (stereo not shown) | 11 |
| Cn1ncc(Br)c1C(=O)NC1CCCCC1 | 11.8 |
| Cc1c(Cl)c(-c2n[nH]c(=S)n2-c2ccccc2)nn1C | 11.8 |
| C=CCOC(=O)/C(=C/c1cccnc1)NC(=O)c1ccccc1 | -2.45 |
| CN1CCN(c2ccc(Cl)cc2NC(=O)c2ccc([N+](=O)[O-])cc2)CC1 | 4.11 |
| O=[N+]([O-])c1ccc(-c2cn(-c3ccccc3F)c(=S)[nH]2)cc1 | -11.1 |
| CCC(C)(C#CCN1CCCCC1)OCCC#N (stereo not shown) | 1.22 |
| O=C(/C=C/c1ccco1)NC(=S)Nc1ccccc1N1CCOCC1 | 2.72 |
| CC(C)CC(=O)Nc1ccc2ccccc2c1 | 14.8 |
| O=C(COc1ccc(Br)cc1)NCCNC(=O)c1ccncc1 | 0.672 |
| C=CCn1c(SCn2nnc3ccccc3c2=O)nnc1-c1ccc(Cl)cc1 | -21.8 |
| CNC(=O)N(O)C1N(/N=C/c2ccc(N(C)C)cc2)C(=S)SC1(C)C (stereo not shown) | 24.9 |
| CC1CCCCN1CCCNC(=O)C1CCN(c2nnc(-n3cccc3)s2)CC1 (stereo not shown) | 6.55 |
| CC1=CC(C)(C)N(C(=O)CSc2nnc(N)s2)c2ccccc21 | 7.05 |

| Structure (SMILES) | hERG current change (%, negative = inhibition) at 1uM [%] |
| --- | --- |
| Cc1cc(=O)n2[nH]c(C)c(-c3ccc(Cl)cc3)c2n1 | 9.06 |
| CCOC(=O)c1c(NC(=O)CCS(=O)(=O)c2ccccc2)sc2c1CCN(C)C2.Cl | -9.18 |
| COc1ccc(CCN2CC(C(=O)NCCc3ccc(F)cc3)CCC2=O)cc1 (stereo not shown) | 4.39 |
| CCN(C(=O)CN1C(=O)S/C(=C\c2ccccc2OC)C1=O)C1CCS(=O)(=O)C1 (stereo not shown) | 11.1 |
| O=c1c2cnn(-c3ccccc3)c2ncn1Cc1ccco1 | 8.66 |
| Cc1cc(=O)oc2ccc(OCC(=O)N3CCc4ccccc43)cc12 | 2.34 |
| CC(OC(=O)c1cc2sccc2n1C)C(=O)NCc1ccco1 (stereo not shown) | 1.63 |
| O=C1ON=C(c2ccccc2)/C1=C/c1ccc(OS(=O)(=O)c2ccccc2)cc1 | 13.9 |
| Cc1ccc(/C=N/Nc2ccnc3cc(Cl)ccc23)c(C)c1 | 0.752 |
| Nc1cc(C(=O)OCC(=O)NCc2ccc(F)cc2)ccc1Cl | 9.24 |
| CCOC(=O)c1c(NC(=O)c2ccn(CC)n2)sc2c1CCC2 | 8.99 |
| CCN1C(=O)/C(=C/c2ccc(C)o2)N(C)C1=S | 15.6 |
| COc1ccc(NC(=O)CSc2nnc(C)c3ccccc23)cc1 | 12.9 |
| C=CCN1C(=O)C(Cc2ccc(OC)cc2)S/C1=N\N=C\c1cccs1 (stereo not shown) | 14.5 |
| Cc1ccc(OCCN(C)C(=O)C2CCC(=O)N(CCCN3CCCC3=O)C2)cc1 (stereo not shown) | 18.8 |
| COc1cccc(N2C(=O)CN(Cc3cc(OC)c(OC)c(OC)c3)C2=S)c1 | 14.3 |
| N#CCCN(Cc1ccccc1)C(=S)NC(=O)c1ccccc1 | 5.98 |
| CCOC(=O)c1sc(NC(=O)CCN2CCCCCC2)c(C(=O)OCC)c1C | 10.6 |
| CCc1ccc2[nH]c(=O)c(CN(Cc3nnnn3C3CCCC3)C3CCCCC3)cc2c1 | 6.64 |
| Cc1c(OCC(=O)N[C@@H](Cc2c[nH]c3ccccc23)C(=O)O)ccc2c1oc(=O)c1ccccc12 | 1.7 |
| CN(C)C(=O)Oc1cccc([N+](C)(C)C)c1.[Br-] | 5.36 |
| O=C1NC(c2ccco2)Nc2sc3c(c21)CCN(Cc1ccccc1)C3 (stereo not shown) | -0.668 |

| Structure (SMILES) | hERG current change (%, negative = inhibition) at 1uM [%] |
| --- | --- |
| CC(C)c1ccc(NC2CCCN(C(=O)c3ccccc3-c3ncc[nH]3)C2)cc1 (stereo not shown) | 1.4 |
| Cc1cc(=O)c2cc3nc(-c4cccnc4)oc3c(Br)c2o1 | 14.1 |
| COc1ccc(/C=N/NC(=O)OC(C)(C)C)cc1OC | 3.01 |
| Nc1ncc(CN2CCCC(C(=O)Nc3ccc(-c4ccco4)cc3)C2)cn1 (stereo not shown) | 2.16 |
| Cc1ccc(OCC(=O)N2CCN(S(=O)(=O)c3ccccc3[N+](=O)[O-])CC2)cc1 | 8.69 |
| N#CCCn1c(=S)[nH]c2ccccc21 | 14.2 |
| Cc1ccc(CCN2CC(C(=O)NC3CCCC3)CC2=O)cc1 (stereo not shown) | 10.7 |
| CCc1c(C)c(C#N)c2nc3ccccc3n2c1NC | 5.81 |
| CCOc1ccc(CCNC(=O)COC(=O)c2cccnc2OCC)cc1OCC | 7.08 |
| CC(=O)OCC(=O)[C@H]1CC[C@H]2[C@@H]3CC[C@H]4C[C@H](O)CC[C@]4(C)[C@H]3C(=O)C[C@]12C | 3.12 |
| O=c1nc(-c2ccccc2)c2cc(Br)ccc2[nH]1 | 17.5 |
| CCOC(=O)c1cnc(SCc2nc(N)nc(Nc3ccccc3OC)n2)nc1N | -4.13 |
| COc1ccc([N+](=O)[O-])cc1NC(=O)Nc1cccc(Cl)c1 | 7.66 |
| CSc1cccc(NS(=O)(=O)c2cc(Br)cnc2N)c1 | 2.74 |
| S=C(Nc1ccccc1)N1CCCCCC1 | 9.2 |
| COC(=O)C1=C(c2cc3ccccc3o2)C[C@@H]2CC[C@H]1N2C(=O)NCCO | 12.6 |
| CC1C=CCC2C(=O)N(c3ccc(OC(=O)c4ccco4)cc3)C(=O)C12 (stereo not shown) | 10.8 |
| COc1ccccc1NC(=O)c1ccc2c(c1)OCO2 | 12.6 |
| COc1ccc(NC(=O)c2sc3nc(N4CCOCC4)c4c(c3c2N)CC(C)(C)OC4)c(OC)c1 | 16.1 |
| Cc1c(NC(=O)CSc2nc3ccccc3c(=O)n2C(C)C)c(=O)n(-c2ccccc2)n1C | 6.03 |
| Cc1ccc(-c2n[nH]c(=S)n2/N=C/c2cc3c(cc2[N+](=O)[O-])OCO3)cc1 | 15.1 |
| O=c1c2ccccc2[nH]c(=S)n1CCCN1CCN(C2CCCCC2)CC1 | -25.8 |
